# Laboratory results reported in PubChem BioAssay AID1745853 (National Center for Advancing Translational Sciences (NCATS), 2022).
# Several values for one entry are separate records, joined by “and”; a condition that tells them apart may be missing. Equal values may be shown once. The list shows a part of the results. Shown are side measurements of this screen, not its main read-out; they come without a call. Peptide text beside a SMILES is read from it. * marks the point of attachment. AFC = O=c1cc(C(F)(F)F)c2ccc(N*)cc2o1
# How the values were obtained:
# Assay in all cases: Primary Screen for Target Class Profiling of Small Molecule Inhibitors of Methyltransferases
# [1] = molecular target: Glycine N-methyltransferase (Homo sapiens) (UniProt Q14749); settings: purified enzyme, MTase-Glo SAH luminescence; measured here: GNMT inhibition; at 40 µM; stronger effect = lower value
# In short: (§1)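 Each enzyme was reacted with SAM and its substrate, with compounds tested once at 40 uM; SAH formed was read by MTase-Glo luminescence.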
# [2] = molecular target: Guanidinoacetate N-methyltransferase (Homo sapiens) (UniProt Q14353); settings: purified enzyme, MTase-Glo SAH luminescence; measured here: GAMT inhibition; at 40 µM; stronger effect = lower value
# In short: as §1
# [3] = molecular target: Histamine N-methyltransferase (Homo sapiens) (UniProt P50135); settings: purified enzyme, MTase-Glo SAH luminescence; measured here: HNMT inhibition; at 40 µM; stronger effect = lower value
# In short: as §1
# [4] = molecular target: Nicotinamide N-methyltransferase (Homo sapiens) (UniProt P40261); settings: purified enzyme, MTase-Glo SAH luminescence; measured here: NNMT inhibition; at 40 µM; stronger effect = lower value
# In short: as §1
# [5] = molecular target: Phenylethanolamine N-methyltransferase (Homo sapiens) (UniProt P11086); settings: purified enzyme, MTase-Glo SAH luminescence; measured here: PNMT inhibition; at 40 µM; stronger effect = lower value
# In short: as §1
# On the % scale 0 is the no-effect control and ±100 the full control effect.
SMILES,"activity change, negative = inhibition [1]","activity change, negative = inhibition [2]","activity change, negative = inhibition [3]","activity change, negative = inhibition [4]","activity change, negative = inhibition [5]"
O=C(NCC(=O)N1CCCC1)Nc1ccc2ccccc2c1,-3.92%,-8.21%,6.64%,-18.2%,-36.5%
COc1ccc(OC)c(CNC(=O)c2cc3n(n2)CC(C)(C(=O)NCc2ccc(F)cc2)N(C)C3=O)c1 (centres undefined),0.972%,4.46%,-2.97%,3.78%,2.58%
CC(C)NC(=O)c1ccc2c(=O)n(Cc3ccccc3)c3nn(Cc4c(F)cccc4Cl)c(=O)n3c2c1,2.2%,0%,4.18%,4.87%,6.03%
Clc1ccc2c(c1)N=C(N1CCNCC1)c1ccccc1N2,-6.78% and -17.8%,-7.21% and 14%,0.818% and 3.99%,-26.4% and -3.87%,-6.12% and 9.76%
C[C@@H](Oc1cc(-n2cnc3ccc(OC4CCN(C)CC4)cc32)sc1C(N)=O)c1ccccc1C(F)(F)F,-80.9%,-87.1%,-91.8%,-95.7%,-92.5%
COc1cc2c(cc1OC(C)C)[C@H](c1ccc(Cl)cc1)N(c1ccc(N(C)CC3CCC(N4CCN(C)C(=O)C4)CC3)cc1)C(=O)C2 (some centres undefined),-14.4%,11.2%,-20.8%,-14.6%,-10.6%
COc1ccc(/C=C/C(=O)O[C@@H]2[C@@H](OC(C)=O)[C@@H](OC(C)=O)[C@H](O[C@H]3[C@@H]4C=CO[C@@H](O[C@@H]5O[C@H](CO)[C@@H](O)[C@H](O)[C@H]5O)[C@@H]4[C@@]4(CO)O[C@@H]34)O[C@H]2C)cc1,0%,7.02%,4.92%,-4.22%,9.59%
CC(C)CCn1c(=O)c2ccc(C(=O)NC3CCCCC3)cc2n2c(=O)n(Cc3cccc(F)c3)nc12,0.27%,4.5%,3.16%,0.77%,0.191%
Cc1noc(C2CC3(CCN(C(=O)CCc4c[nH]c5ccccc45)CC3)CN2C)n1 (centres undefined),-2.22%,-0.505%,-0.466%,-2.4%,-5.02%
CCC(C)NC(=O)c1ccc2c(=O)n(C(C)C)c3nn(CC(=O)Nc4cccc(C)c4)c(=O)n3c2c1 (centres undefined),2.24%,0.48%,-0.836%,1.27%,-2.43%
CC(C(=O)NCc1cccnc1)n1ccc2cc(S(=O)(=O)N3CCCC3)ccc21 (centres undefined),9.24%,2.18%,5.99%,10.8%,4.43%
COc1ccccc1CNC(=O)C1(C)Cn2c(cc3ccccc32)C(=O)N1Cc1cccc(OC)c1OC (centres undefined),-1.2%,3.09%,3.36%,0.417%,0.22%
COc1ccc(OC)c(CCN2C(=O)c3cc4occc4n3CC2(C)C(=O)NC2CCCCC2)c1 (centres undefined),0.203%,3.73%,0.678%,3.49%,1.33%
O=C(c1cc(-c2ccc(Cl)cc2Cl)c2cccn2n1)N1CCCC1,-11.2%,-0.71%,-7.08%,-24.4%,-4.46%
CCc1ccc(N2C(=O)c3c(C(=O)OC)ncn3CC2(C)C(=O)NC2CCCCCC2)cc1 (centres undefined),-0.254%,3.96%,1.28%,4.95%,0.618%
O=c1c2c(CO)c(-c3ccccc3)nn2ccn1Cc1ccccc1,-3.56%,-3.26%,-0.49%,-4.37%,-3.21%
Cc1ccc(-c2nnn3c2nc(NCCC(C)C)c2ccccc23)cc1,0.922%,2.2%,-1.58%,-2.76%,-3.52%
C/C(=N\N=C(N)N)c1cc(NC(=O)CCCCCCCCC(=O)Nc2cc(/C(C)=N/N=C(N)N)cc(/C(C)=N/N=C(N)N)c2)cc(/C(C)=N/N=C(N)N)c1,-54.7%,-37.1%,-90.1%,-70.2%,-61.4%
O=C(Nc1ccc2c(c1)OCCO2)N1CCC(Cc2nc(-c3ccncc3)n[nH]2)C1 (centres undefined),-27.3%,-22.3%,-24.9%,-37.6%,-41.1%
O=C(NCCc1ccccc1)c1ccc2c(=O)nc3c(-c4ccccc4F)n[nH]n3c2c1,-6.86%,0%,1.6%,6.4%,-1.64%
CC(C)Oc1ccc(CN2C(=O)c3cc4occc4n3CC2(C)C(=O)NC2CCCCC2C)cc1 (centres undefined),-3.48%,5.61%,-1.43%,-7.6%,-5.46%
CCn1c(=O)c(-c2ccc(-c3cncs3)cc2Cl)cc2cnc(Nc3ccc(N4CCN(C)CC4)cc3)nc21,-3.31%,1.33%,-27.1%,-14%,-6.15%
O=C(CCn1ccc2cc(S(=O)(=O)N3CCCCC3)ccc21)N1CCN(c2ccccn2)CC1,-1.97%,1.38%,-4.51%,-3.02%,-1.45%
COc1ccc(CC(=O)N2C[C@@H](CO)[C@H](c3ccccn3)C2)cc1,-1.67%,-0.655%,1.26%,-1.46%,-5.61%
Nc1nc(CC(=O)Nc2ccc(CCNCC(O)c3ccccc3)cc2)cs1 (centres undefined),-4.33%,,3.75%,,
CCCn1c(=O)c2ccc(C(=O)NC(C)C)cc2n2c(=O)n(CC(=O)Nc3ccc(C)c(C)c3)nc12,6.56%,4.8%,8.11%,4.46%,4.37%
Cc1cccc(NC(=O)CSc2nnc3n(CC(C)C)c(=O)c4ccc(C(=O)NCC(C)C)cc4n23)c1,-7.48%,4.16%,2.16%,2.91%,-2.2%

SMILES,"activity change, negative = inhibition [1]","activity change, negative = inhibition [2]","activity change, negative = inhibition [3]","activity change, negative = inhibition [4]","activity change, negative = inhibition [5]"
O=C(Cn1c(=O)oc2cc(S(=O)(=O)N3CCCCC3)ccc21)N1CCc2ccccc2C1,-3.26%,0%,5.6%,9.78%,-20.7%
C=C1C(OC2OCC(O)C(O)C2O)CC2C(C)(C)C(O)CCC2(C)C1CC/C(C)=C\CO (centres undefined),-2.06%,4.14%,7.48%,-9.9%,-6.73%
O=S1(=O)CCN(Cc2cc(NCC3CCOCC3)c3[nH]c(-c4ccccc4)cc3c2)CC1,-14.4%,-47.2%,-18.5%,-57.6%,-22.6%
CO[C@H]1/C=C/[C@@](C)(O)/C=C/C(=O)O[C@H](C)[C@@H](C)CC/C=C/1C,-10.2%,-18%,-15.2%,-23.4%,-14.7%
CC1CCN(S(=O)(=O)c2ccc3c(ccn3CC(=O)NC3CCCc4ccccc43)c2)CC1 (centres undefined),4.69%,0.738%,3.67%,5.97%,1.62%
CCC[C@H]1C[C@H](C(=O)N[C@@H]([C@@H]2O[C@@H](SC)[C@@H](O)[C@@H](O)[C@@H]2O)[C@H](C)Cl)N(C)C1,3.76%,,3.75%,,
CC[C@H]1CN2CCc3cc(OC)c(OC)cc3[C@@H]2C[C@@H]1C[C@H]1NCCc2cc(OC)c(OC)cc21,-7.88%,5.71%,-8.56%,-3.82%,6.88%
CCCSCCCN1C(=O)c2nc3ccccc3n2CC1(C)C(=O)NC1CCCC1 (centres undefined),-6.13%,2.09%,-5.95%,-5.03%,-6.32%
O=C(Cc1cccs1)N1CCCn2cc(-c3ccccc3F)nc21,-5.59%,-4.11%,-37.9%,-17%,-18.3%
CCN(CC)CCN(Cc1ccc(-c2ccc(C(F)(F)F)cc2)cc1)C(=O)Cn1c(SCc2ccc(F)cc2)nc(=O)c2c1CCC2,-7.07%,-2.16%,-24.8%,-62.2%,-17.3%
COc1cc(OC)cc(N2C(=O)c3cc(-c4ccccc4)nn3CC2(C)C(=O)NCc2ccccc2)c1 (centres undefined),0.525%,0%,0.612%,1.86%,-0.281%
COc1ccc(CN2CCCC(COc3ccccc3C(=O)NC3CC3)C2)c(OC)c1 (centres undefined),-1.92%,1.75%,-50.6%,-28.7%,0.593%
COC(=O)[C@H](CC1C=NC=N1)NCC12CC3CC(CC(C3)C1)C2 (some centres undefined),1.98%,-4.12%,9.73%,-14.4%,-0.294%
O=C(NC1CCc2nnc(C3CC3)n2CC1)c1cnco1 (centres undefined),1.08%,0.27%,3.19%,-3.49%,0.623%
CCOC(=O)[C@H](CCc1ccccc1)N[C@@H](C)C(=O)N1[C@H](C(=O)O)C[C@H]2CCCC[C@@H]21,2.4%,-0.852% and 7.24%,3.48%,-9.58% and -3.89%,4.13% and 4.87%
CCN(Cc1cccnc1)C(=O)CN(c1ccc(OC)nc1)S(=O)(=O)c1ccccc1C,-3.33%,-7.47%,12.2%,-13.5%,0.073%
CC(C)CCn1c(=O)c2ccc(C(=O)NCC(C)C)cc2n2c(=O)n(Cc3ccccc3F)nc12,9.37%,3.18%,11.4%,12.4%,12.2%
Cc1[nH]cnc1CN1CCc2nc(C(=O)NCCOc3ccccc3)oc2CC1,-6.68%,1.11%,-7.16%,-3.73%,13.6%
CC(=O)N[C@@H](CC(C)C)C(=O)N[C@@H](CCC(=O)O)C(=O)N[C@@H](CCC(=O)O)C(=O)N[C@@H](CC(=O)O)C(=O)Nc1ccc2c(C(F)(F)F)cc(=O)oc2c1 (Ac-LEED-{AFC}),1.49%,7.72%,5.11%,-7.71%,-1.48%
COc1ccccc1CNC(=O)C1c2c(n(C)c3ccccc23)SCC(=O)N1c1ccc(C)c(Cl)c1 (centres undefined),4.7%,2.54%,-5.5%,-7.96%,-1.93%
COC(=O)c1cc2n(n1)CC(C)(C(=O)NC1CCC(C)CC1)N(c1cc(C)cc(C)c1)C2=O (centres undefined),7.67%,0.741%,3.24%,9.54%,7.13%
CCCCN(CC)CCCN1C(=O)c2cc3occc3n2CC1(C)C(=O)NC1CCCCCC1 (centres undefined),-8.81%,0%,-5.96%,-2.28%,-6.62%
CC(C)Cn1nc(CNC(=O)c2ccccc2F)c2ccccc21,4.62%,0.917%,3.81%,-1.77%,3.24%
C[C@@H]1O[C@@H](O[C@H]2[C@H](O[C@H]3[C@H](O[C@H]4CC[C@@]5(C)C(CC[C@]6(C)C5CC=C5[C@@H]7CC(C)(C)CC(=O)[C@]7(C)CC[C@]56C)[C@@]4(C)CO)O[C@H](C(=O)O)[C@@H](O)[C@@H]3O)O[C@H](CO)[C@H](O)[C@@H]2O)[C@H](O)[C@H](O)[C@H]1O (some centres undefined),-1.43%,-1.45%,7.01%,-19.7%,8.18%
CCOC(=O)c1cc2n(n1)CC(C)(C(=O)NC1CCC(C)CC1)N(c1ccccc1CC)C2=O (centres undefined),8.1%,2.91%,8.03%,3.67%,6.29%
CCOc1ccc(C(Nc2ccccn2)c2ccc3ccc(C)nc3c2O)cc1C (centres undefined),1.58%,-17.4%,2.69%,-31.8%,-7.54%
CNc1cc(C2CC(NS(=O)(=O)c3ccc(Cl)s3)C2)nc(N)n1 (centres undefined),-6.01%,-0.907%,-17.4%,-19.1%,-13.3%
